Experimental data: the supplement of paper PMC10126150
Values marked as one replicate rest on one cluster of the flow cell; about a third of the high ones do not repeat.

system: ATP; test: switch fluorescence ratio, 500 uM ATP over buffer (Cy3 cluster intensity, sum of 5 cycles each) (fold (ratio)); higher = stronger signal-on switching upon ATP binding; sequences stand for … in TCGTCGGCAGCGTCAGATGTGTATAAGAGACAGTTTTTTTTTTTTTTTTTTTTTTTTT…TC; settings: aptamer strand: ATP DNA aptamer (quencher-CACCTGGGGGAGTATTGCGGAGGAAGG + anchor), 100 nM annealed; ATP concentration: 500 uM; one replicate
In short: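 Cy3-labelled switching-strand clusters on a modified Illumina MiSeq flow-cell were annealed to 100 nM quencher-labelled ATP aptamer, imaged in selection buffer, then imaged after 15 min with 500 uM ATP at 22 °C. Five buffer/ATP cycles ran, with NaOH stripping and re-annealing between them. The fluorescence ratio is summed target-cycle over summed buffer-cycle Cy3 intensity per cluster, averaged per switch-domain sequence. Clusters outside 100-1000 RFU were excluded.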
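Also: ATP exposure 15 min at 22 °C before imaging.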

| Sequence | switch fluorescence ratio |
| --- | --- |
| ACAGGAAATT | 1.01 |
| ACAGGACGCT | 1.05 |
| ACAGGAGCTA | 1.11 |
| ACAGGCACGT | 1.24 |
| ACAGGCTCCA | 0.966 |
| ACAGGGAACT | 1.04 |
| ACAGGGCGAC | 0.991 |
| ACAGGGGACA | 1.06 |
| ACAGGGGATT | 0.977 |
| ACAGGTACTT | 1.07 |
| ACAGGTGGAT | 1.46 |
| ACAGGTTGTC | 1.06 |
| ACAGGTTTAC | 1.02 |
| ACAGTACTCG | 1.35 |
| ACAGTATATA | 1.11 |
| ACAGTCAGGG | 1.12 |
| ACAGTGACCT | 1.3 |
| ACAGTGAGCT | 0.975 |
| ACAGTGTCG | 1.02 |
| ACATAAAATA | 1.01 |
| ACATAAATC | 1.03 |
| ACATAATCCA | 1.04 |
| ACATAGGAAT | 1.04 |
| ACATAGTTCG | 1.05 |
| ACATATCGCA | 1.09 |

| Sequence | switch fluorescence ratio |
| --- | --- |
| ACATATTAGT | 1.01 |
| ACATCAGGCG | 1.06 |
| ACATCCTCTC | 1.04 |
| ACATCCTTCA | 1.6 |
| ACATCGTATG | 1.01 |
| ACATCTAGTA | 0.973 |
| ACATCTGAAA | 1.01 |
| ACATGAGGGC | 1.1 |
| ACATGAGTGA | 1.01 |
| ACATGATTG | 1.03 |
| ACATGCGACT | 0.999 |
| ACATGGCTAG | 1.03 |
| ACATGGCTTT | 0.987 |
| ACATGGTTTC | 1.01 |
| ACATGTAGTT | 0.933 |
| ACATGTTTGA | 1.02 |
| ACATTAGTCG | 1.03 |
| ACATTTAAAC | 1.02 |
| ACCAACGACA | 1.4 |
| ACCAAGCAAC | 2.01 |
| ACCAAGGTTG | 1.06 |
| ACCAATCAGC | 1.02 |
| ACCACCATCG | 1.15 |
| ACCACTTTCA | 1.04 |
| ACCAGGACCG | 1.16 |

| Sequence | switch fluorescence ratio |
| --- | --- |
| ACCAGTCGAG | 0.993 |
| ACCAGTGCA | 1.07 |
| ACCATCAGAC | 1.18 |
| ACCATGTGT | 1.02 |
| ACCATGTGTA | 1.01 |
| ACCATTAGGA | 1 |
| ACCATTTAGA | 0.995 |
| ACCATTTCTA | 1 |
| ACCCAAAAAA | 1.04 |
| ACCCATTGTC | 1.05 |
| ACCCCCGACC | 1.51 |
| ACCCCCGCCA | 2.01 |
| ACCCCCGCTC | 2.44 |
| ACCCCCGGAT | 1.16 |
| ACCCCCTCGG | 1.5 |
| ACCCCTTCAT | 1.12 |
| ACCCGAGG | 1.06 |
| ACCCGCTAGA | 1.62 |
| ACCCGGCAAA | 1.33 |
| ACCCGGGACC | 1.04 |
| ACCCGTAGTC | 1.28 |
| ACCCGTCATC | 1.08 |
| ACCCTAATGT | 0.999 |
| ACCCTACCCG | 1.26 |
| ACCCTCCCTG | 1.16 |

| Sequence | switch fluorescence ratio |
| --- | --- |
| ACCCTGAGTA | 0.985 |
| ACCCTGGGCC | 1 |
| ACCCTGTATT | 1.05 |
| ACCGAATCAA | 1.31 |
| ACCGAGAAAC | 1.02 |
| ACCGAGAGAC | 1.5 |
| ACCGAGCATT | 2.08 |
| ACCGAGCGTT | 1.11 |
| ACCGCCAGTC | 1.26 |
| ACCGCCCCGT | 2.45 |
| ACCGCCTCTG | 1.78 |
| ACCGCGAGCA | 1.09 |
| ACCGCGCCGG | 0.956 |
| ACCGCTCTGG | 1.02 |
| ACCGGACTA | 1.28 |
| ACCGGACTTA | 1.12 |
| ACCGGATCTG | 1.06 |
| ACCGGCAAAC | 1.3 |
| ACCGGCGCTT | 1.28 |
| ACCGGCTGGT | 0.994 |
| ACCGGGCTCT | 1.04 |
| ACCGGGTGAA | 1.18 |
| ACCGGGTTAC | 1.1 |
| ACCGGTATTC | 1.01 |
| ACCGGTCGTA | 0.948 |

| Sequence | switch fluorescence ratio |
| --- | --- |
| ACCGGTGCAA | 2.95 |
| ACCGTGCTTC | 1.07 |
| ACCGTGGAAA | 0.969 |
| ACCGTTTTCC | 1.22 |
| ACCTAAATT | 1.06 |
| ACCTACTGCA | 1.38 |
| ACCTAGAACT | 1.01 |
| ACCTAGCGTA | 0.992 |
| ACCTAGCTAT | 1.13 |
| ACCTAGTGGT | 1.06 |
| ACCTATCAAA | 1.04 |
| ACCTATGTAG | 1.04 |
| ACCTATGTAT | 1.03 |
| ACCTATTAGG | 1 |
| ACCTCACTGT | 1.32 |
| ACCTCCGTCG | 1.7 |
| ACCTCGTAAG | 1.02 |
| ACCTCGTTCT | 1.02 |
| ACCTGAGGTA | 1.03 |
| ACCTGCATCC | 2.22 |
| ACCTGCGCCT | 1.34 |
| ACCTGCTATG | 1.03 |
| ACCTGGTCTA | 1.03 |
| ACCTGTACAA | 1.17 |
| ACCTGTCTTT | 1.02 |

| Sequence | switch fluorescence ratio |
| --- | --- |
| ACCTGTTTGG | 0.995 |
| ACCTTCCGGA | 1.69 |
| ACCTTGAACG | 1.16 |
| ACCTTGGGTG | 1.18 |
| ACCTTGGTTC | 1.02 |
| ACCTTGTACC | 1.18 |
| ACCTTTACAT | 1.18 |
| ACCTTTCTCG | 3.06 |
| ACCTTTGCGG | 1.05 |
| ACCTTTGTAT | 1.01 |
| ACGAAATTTT | 1.02 |
| ACGAACCGTC | 1.27 |
| ACGAAGTAAA | 1.02 |
| ACGAAGTGGA | 1.01 |
| ACGAATATGG | 1.07 |
| ACGAATCGTA | 1.05 |
| ACGACACTGT | 1.52 |
| ACGACCCCGC | 1.67 |
| ACGACCGCCA | 1.67 |
| ACGACGCTTT | 1.39 |
| ACGACTGGGT | 1 |
| ACGACTGTT | 1.12 |
| ACGAGAGTGA | 1.04 |
| ACGAGGAATG | 1.07 |
| ACGAGGCTGC | 2.94 |

| Sequence | switch fluorescence ratio |
| --- | --- |
| ACGAGGTGTC | 0.972 |
| ACGAGTAGTT | 1.01 |
| ACGAGTCACG | 1.1 |
| ACGATAAATG | 1.11 |
| ACGATACCTG | 1.55 |
| ACGATATTGA | 1.06 |
| ACGATCGTAT | 0.988 |
| ACGATGCAGC | 1.68 |
| ACGATGCTA | 1.56 |
| ACGATGGGGC | 1.03 |
| ACGATGTTCG | 0.984 |
| ACGCAAATA | 4.25 |
| ACGCAACTTA | 1.4 |
| ACGCAAGTAT | 1.13 |
| ACGCAGGTCG | 0.967 |
| ACGCAGTCC | 1.47 |
| ACGCATTTCC | 2.39 |
| ACGCCGCACT | 2.02 |
| ACGCGAAAGG | 1.04 |
| ACGCGATGCG | 1.03 |
| ACGCGCATC | 3.77 |
| ACGCGCCGTT | 1.03 |
| ACGCGCCTTA | 0.99 |
| ACGCGGCTGG | 1.02 |
| ACGCGGTGCG | 1.01 |

| Sequence | switch fluorescence ratio |
| --- | --- |
| ACGCGGTGGT | 0.944 |
| ACGCTGAGGG | 1.06 |
| ACGCTGCGAA | 1.07 |
| ACGCTGTCAT | 0.995 |
| ACGCTTTCAT | 1.01 |
| ACGGAAGTCG | 0.974 |
| ACGGACACAG | 1.1 |
| ACGGACGTCA | 1.01 |
| ACGGACTTGA | 1.21 |
| ACGGACTTTA | 1.16 |
| ACGGAGTATC | 1.11 |
| ACGGATATTC | 1.07 |
| ACGGATGGTC | 0.977 |
| ACGGCAAGAA | 1.62 |
| ACGGCCGTAA | 1.03 |
| ACGGCCTAGT | 1.03 |
| ACGGCGAAGT | 1.03 |
| ACGGCGCCCG | 0.951 |
| ACGGCGTGCT | 1.01 |
| ACGGCGTTAC | 1.42 |
| ACGGGAACGC | 1.05 |
| ACGGGAATCG | 1.01 |
| ACGGGAGATG | 1.04 |
| ACGGGCTAAA | 1.02 |
| ACGGGCTGAG | 0.999 |
